From PubChem BioAssay AID995 (National Center for Advancing Translational Sciences (NCATS), 2007)
Out of some 72,000 compounds screened, about 710 (0.99%) were called active. The shares of active, inactive and inconclusive entries below differ from those in the screen. Calls follow the shape of the dose curve; as a rule, active = well fitted inhibition curve with a large enough effect; inconclusive = small, poorly fitted or top-dose-only effect; inactive = no such curve, though single readings can be large or run the other way. A potency beside an inconclusive call is a rough fit, not a confirmed value.

Test: qHTS Assay for Inhibitors of the ERK Signaling Pathway using a Homogeneous Screening Assay; also: nearly all actives have a fitted effect of over 55% in size
Conditions: HEK293-V1b, vasopressin-stimulated pERK AlphaScreen; activity, negative = inhibition: at 57.5 µM (top of the series) unless noted
In short: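 V1b-HEK293 cells; cpd 30 min 37C; 25 nM vasopressin 5 min; lyse 10 min; AlphaScreen beads 5 hr RT. Normalized to DMSO basal and 25 nM vasopressin; AC50 by Hill fit.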
% is scaled to controls: 0 for no effect and ±100 for the full control effect; potency is read from the fitted curve at half-maximal effect; tags tell the direction and shape of the fitted curve.

Potency, inconclusive:
Cc1cnc(CNc2nc(-c3ccc4c(c3)OCO4)nc3ccccc23)cn1 7.94 µM [inhibitor, partial curve, poor fit]
CC(C)NC(=O)c1cc(C(=O)c2cc(Cl)ccc2O)coc1=N 15.8 µM [inhibitor, partial curve]
CC(C)Cn1cc(C(=O)N2CCN(c3ccccn3)CC2)c2c3ccccc3n(C)c2c1=O 0.158 µM [inhibitor, partial curve]
Cc1cc(-c2nnco2)c(C)n1-c1ccc(F)cc1 1 µM [inhibitor, full curve]
CC1(C)CC(=O)c2cc(OCC(=O)N3CCN(c4ccccc4F)CC3)ccc2O1 31.6 µM [inhibitor, single point]
CCNc1ncc2nc(C)c(=O)n(C3CC3)c2n1 1 µM [inhibitor, partial curve]
COc1c2ccoc2cc2oc(C)cc(=O)c12 2 µM [inhibitor, full curve, poor fit]
COc1cc(OC)cc(C(=O)Nc2cccc(C(C)=O)c2)c1 15.8 µM [inhibitor, single point]
CCCc1noc2c1C(c1ccoc1)C(C#N)=C(N)N2 (stereo unspecified) 12.6 µM [inhibitor, partial curve]
Cc1nc(N2CCN(Cc3nc4ccccc4[nH]3)CC2)c2oc3ccccc3c2n1 20 µM [inhibitor, partial curve]
CCC(=O)Nc1ccc(NC(=O)c2ccccn2)cn1 12.6 µM [inhibitor, partial curve]
CCCCS/C(=C(/C#N)C(N)=O)c1cc2c([nH]1)CCCC2 25.1 µM [inhibitor, partial curve]
COc1ccc2[nH]cc(CCNc3nc(-c4ccccc4OC)nc4ccccc34)c2c1 2.51 µM [inhibitor, full curve, poor fit]
Cc1nn(Cc2ccccc2Cl)c(C)c1C(=O)NCc1ccco1 25.1 µM [inhibitor, single point]
c1ccc(-n2ncc3c2ncn2c(C4CCCCC4)nnc32)cc1 12.6 µM [inhibitor, partial curve]
CC1CCCN(C(=O)C(Cc2ccccc2)n2cccc2)C1 (stereo unspecified) 15.8 µM [inhibitor, partial curve]
COCCOC(=O)C(C#N)c1nc2ccccc2nc1N1CCCC1 (stereo unspecified) 10 µM [inhibitor, partial curve]
COc1ccc(C2Oc3cc(OC)cc(OC)c3CC2O)cc1 (stereo unspecified) 25.1 µM [inhibitor, single point]
O=C1c2ccccc2C(=O)N1CCCSc1nc2ccccc2o1 0.316 µM [inhibitor, full curve]
Oc1c(Cl)cc(Cl)c(Cl)c1Cl 39.8 µM [inhibitor, single point]
COc1ccc(-n2c(C)nc3cc(C(=O)NCc4ccco4)ccc32)cc1 31.6 µM [inhibitor, partial curve]
O=C(NCCC1=CCCCC1)C1CCN(S(=O)(=O)c2cccc3cccnc23)CC1 15.8 µM [inhibitor, partial curve]
CCc1ccc(C2CC(c3ccc(Cl)cc3)n3nc(N)nc3N2)cc1 (stereo unspecified) 39.8 µM [inhibitor, single point]
CC(C)Sc1nc2c(c(=O)[nH]c(=O)n2C)n1Cc1ccc(Cl)cc1 15.8 µM [inhibitor, single point]
COc1ccc(N2CCN(C(=O)CN3C(=O)c4ccccc4S3(=O)=O)CC2)cc1 25.1 µM [inhibitor, partial curve, poor fit]
CC1(C)CC(=O)C2=C(C1)OC(N)=C(C#N)C21CCC2(CC1)OCCO2 25.1 µM [inhibitor, partial curve, poor fit]
c1ccc(-c2nc(N3CCOCC3)c3ccccc3n2)nc1 25.1 µM [inhibitor, partial curve]
Cn1c(=O)c2[nH]c([C@@H]3CC(=O)C[C@H](c4nc5c([nH]4)c(=O)n(C)c(=O)n5C)N3)nc2n(C)c1=O 5.01 µM [inhibitor, partial curve, poor fit]
COc1ccc2c(c1)c(CC(=O)O)c(C)n2Cc1ccc(Cl)cc1 31.6 µM [inhibitor, single point]
COc1ccc(C(=O)N2CCC3(CC2)CN(c2ccc(-c4ccccc4)cc2)C3)cc1 25.1 µM [inhibitor, single point]
O=C1c2ccccc2C(=O)c2c(NC3CCCCC3)ccc(Nc3ccc(S(=O)(=O)O)cc3)c21 3.16 µM [inhibitor, partial curve]
CC(C)CCSc1nnc(Cn2c(=O)sc3ccccc32)n1C 31.6 µM [inhibitor, single point]
O=C(COc1cc(Cl)c(Cl)cc1Cl)Nc1ccncc1 1 µM [inhibitor, full curve]
COc1ccc(-c2ccc(SCC(=O)N3CCCC3)nn2)cc1OC 0.1 µM [inhibitor, full curve]
CCC(=O)N(Cc1cc2cc(OC)ccc2[nH]c1=O)c1ccc(C)cc1C 15.8 µM [inhibitor, single point]
COc1ccc(C(=O)CSc2nc3nc(C)cc(C)n3n2)cc1OC 3.98 µM [inhibitor, full curve, poor fit]
CCc1nc(SCCO)c2oc3ccccc3c2n1 5.01 µM [inhibitor, full curve]
CCNc1ncc2nc(-c3ccc(F)cc3)c(=O)n(CCc3ccccc3)c2n1 2.51 µM [inhibitor, full curve, poor fit]
COCCn1c(SCc2ccc(C(=O)OC)o2)nc2ccccc2c1=O 39.8 µM [inhibitor, single point]
Cc1cccc(-n2c(=O)[nH]c3c(C(N)=O)nc(CC(C)C)nc32)c1 1 µM [inhibitor, full curve, poor fit]
CCCOc1nc2c(c(=O)n(C)c(=O)n2C)n1CC 39.8 µM [inhibitor, single point]
COc1ccc(C2C(C#N)=C(N)Oc3cc(O)ccc32)cc1OC (stereo unspecified) 31.6 µM [inhibitor, partial curve, poor fit]
O=C(NCc1ccccc1)C1CCN(S(=O)(=O)c2cccc3cccnc23)CC1 25.1 µM [inhibitor, single point]
CCOC(=O)Cc1csc(NC(=O)c2ccc(S(=O)(=O)N3CCCC3)cc2)n1 3.16 µM [inhibitor, partial curve]
CCC(C)n1c(=O)c(C(=O)Nc2ccccc2S(N)(=O)=O)c(O)c2ccccc21 (stereo unspecified) 12.6 µM [inhibitor, partial curve]
CCCn1c(C)nc2c(N(CCN(C)C)Cc3ccccc3)nc(C)nc21 31.6 µM [inhibitor, single point]

Potency, inactive:
Cc1c(-c2ccccc2)nc(N)c(C#N)c1-c1ccco1
COc1ccc(NC(=O)CN(c2ccc(C)cc2)S(=O)(=O)c2c(C)nn(C)c2C)cc1OC
CCN(CC)S(=O)(=O)c1ccc(N2CCCC2)c(C(=O)OCC(=O)/C(C#N)=C(\C)N)c1
CN(C)C(=O)[C@H]1C[C@@H]1[C@H](NC(=O)OCc1ccccc1)c1ccccc1
COc1cc(C2c3c(oc4ccc(Cl)cc4c3=O)C(=O)N2Cc2ccco2)cc(OC)c1OC (stereo unspecified)
N=C(N)SCCc1ccc(CCSC(=N)N)cc1
Cc1cc(C(=O)Nc2cccc(C(=O)O)c2)oc1C
CCn1c2ccccc2c2nc3cc(S(=O)(=O)N4CCOCC4)ccc3nc21
COCCCNC(=O)C1CC(=O)N(CCc2ccc(OC)c(OC)c2)C1 (stereo unspecified)
CN1CCc2nc(NC(=O)c3cccc(S(=O)(=O)N4CCc5ccccc54)c3)sc2C1
Cc1occc1-c1nnc(SCC(=O)Nc2ccccc2N2CCCCC2)n1C
C=CCNC(=O)CCCOc1cc(C)ccc1C
O=C(COc1cccc2cccnc12)Nc1nccs1
CC1=C(C(=O)NC2CCCC(C)C2C)C2(CCCCC2)OC1=O (stereo unspecified)
O=C(COc1ccc(F)cc1Br)N1CCc2ccccc21
Cc1noc(C)c1-c1nccc(N2CCN(C)CC2)n1
COCCn1c(=O)c(CCc2ccccc2)nc2cnc(OCc3ccccc3)nc21
CC(=O)c1ccsc1B(O)O
c1csc(Cn2c(-c3cccs3)nc3ccccc32)c1

Potency, active:
Cc1ccc2nc(NC(=O)C3CCN(S(=O)(=O)c4cccs4)CC3)sc2c1 25.1 µM
O=C1c2ccccc2-c2onc3ccc(NCCCn4ccnc4)c1c23 15.8 µM
N#CCCn1c(=O)cnc2cnc(N3CCOCC3)nc21 6.31 µM

activity, negative = inhibition, inactive:
COC(=O)NC(c1ccc2ccccc2c1)C(C(C)=O)C(=O)OC (stereo unspecified) 1.01% [at 11.5 µM]
N=C(N)SCC(=O)O -29.1% [at 11.5 µM]
CCOC(=O)CCN1C(=O)[C@H]2[C@H]3[C@H](O)[C@H](O)C/C(=N/NC(=O)OCc4ccccc4)[C@@H]3CC[C@@H]2C1=O -1.83% [at 11.5 µM]
